# Data taken from ChEMBL document CHEMBL4888484, “Replenishing the malaria drug discovery pipeline: Screening and hit evaluation of the MMV Hit Generation Library 1 (HGL1) against asexual blood stage Plasmodium falciparum ,using a nano luciferase reporter read-out” (2022).
# Screen size: about 150,000 compounds; about 540 (0.36%) showed an effect of 50% or more. The list shows a part of the results.
# Test system: Plasmodium falciparum
# Assay: Primary screen in NF54 nanoGlo assay, in single point, at 2uM, 72h; a lower Z score goes with more inhibition
# Assay type: functional, Erythrocyte
# Settings: timepoint 72 hour
Structure (SMILES),% Inhibition [%],Z score
COc1c2ccc(C(=O)N3CCC[C@H](S(=O)(=O)c4ccc(F)cc4)C3)cc2nn1C,-23,2.96
CC(NC1CCc2c(O)cccc21)c1cnn(C(C)C)c1 (stereo not given),-3,0.27
COC[C@H](NCC(=O)N1CCCCCC1)c1ccc(F)c(F)c1,33,-3.31
CN(C(=O)C[C@]1(c2ccccc2Cl)CC(=O)N(C2CCCC2)C1=O)C(C1CC1)C1CC1,10,-1.35
Cc1ccc(NCC(=O)NCC(F)(F)F)cc1C(=O)NC(C)C,0,0.03
CCCCCN1CC(=O)N[C@@H]1c1ccc(C#N)cc1,-13,1.42
O=C(O)[C@H]1CN(c2ccc3nnnn3n2)C[C@@H]1c1ccc(F)cc1F,8,-0.92
Cc1cccc(CCN(C)[C@H]2CS(=O)(=O)C[C@@H]2O)n1,-5,0.99
CCc1ccc(CC(=O)NC(CC)CC)cc1,-7,0.71
CC(C)(C)OC(=O)NC[C@H](NC(=O)Nc1ccc(N2CCOCC2)nc1)C1CCCCC1,-19,2.52
O=C(NCc1ccccc1)c1cc2cc(NC(=O)C3CCC3)ccc2n1Cc1cccc(F)c1,-7,0.89
COc1ccc(Cl)cc1NC(=O)COc1cc(C)c2c(C)nn(C)c2n1,2,-0.43
Clc1ccc(COC2CCN(Cc3ccon3)CC2)cc1Cl,-8,0.74
CC1(C)C(=O)NC(=O)N1Cc1noc(-c2ccoc2)n1,44,-3.98
CC(=O)N1CCC(CCc2noc(-c3ccc(F)cc3)n2)CC1,-3,0.51
CCCCC(C(=O)Nc1cc(C)on1)N1CCN(C)CC1C (stereo not given),39,-5.75
CC(C)C[C@@](C)(CN)NS(=O)(=O)c1ccc(C#N)cc1,1,-0.09
Cc1noc(C)c1CCC(=O)N1CCC(Oc2nc3c(C)cccc3s2)CC1,-5,0.72
CC/C=C/CC(=O)N1C[C@H](NC(=O)c2ccccc2F)C[C@H]1C(=O)NCC,-23,2.03
Cc1ccc(N2C(=O)[C@@H]3[C@H](C)N[C@@]4(C(=O)Nc5ccccc54)[C@@H]3C2=O)cc1,1,-0.1
CN(C)C(=O)CN(C)C(=O)CCc1ccc(Cl)c(Cl)c1,1,-0.08
Cc1ncc(NC(=O)c2occc2C)c(C2CC2)n1,-9,1.46

Structure (SMILES),% Inhibition [%],Z score
CNC(=O)[C@@H]1C[C@H](N)CN1CC(c1ccccc1)c1ccccc1,4,-0.42
Cc1ccc(NC(=O)N2CCC[C@H](N(CCCN3CCCC3)S(C)(=O)=O)C2)c(C)c1,7,-1.15
CCN(C[C@H]1CCOC1)C(=O)C1=NN(c2ccccc2)C(=O)CC1,-9,1.4
CCC(C)NC(=O)CN1CCC[C@@H]1CCc1ccccn1 (stereo not given in full),4,-0.46
O=C(CS(=O)(=O)c1ccccc1)NC1CCCCC1,-10,1.19
CN1CCN(CCC(C)(C)NC(=O)c2ccc(-c3ncon3)cc2)CC1,5,-0.62
Cc1sc(-c2ccoc2)nc1-c1ccc2c(c1)CC(=O)N2C,-15,1.8
O=C(c1cccnc1)c1ccc(Cl)cc1Cl,2,-0.18
CN(C)C1(CNC(=O)CCc2ccncc2)CC1,3,-0.49
CC[C@@H]1[C@@H](C)[C@H](Nc2ccccc2)c2ccccc2N1C(=O)c1ccc(F)cc1,3,-0.44
CCOC(=O)c1cc(NC(=O)c2cnn(C(C)(C)C)c2)c[nH]1,-3,0.32
Cc1ccc(Cl)cc1-n1ncc2c(NCc3ccco3)ncnc21,-8,1.01
O=C(N[C@@H]1CC[C@@H](C(F)(F)F)N(Cc2ccn[nH]2)C1)C(F)(F)F,-7,0.59
COc1cc(C(=O)N2C[C@H](C)OC3(CCC3)C2)ccc1C,0,-0.02
C/C=C(\C)CN1CCC(CCC(=O)Nc2ccc3c(c2)OCCO3)CC1,0,0.05
NS(=O)(=O)Cc1ccc(CNc2ccc3ccc(F)cc3n2)cc1,35,-4.66
COc1cccc([C@H]2C[C@H](NCc3cn(C)nc3C)C2)c1,-9,1.22
CC(=O)Nc1nc2ccc(NC(=O)c3ccc(C)nc3)cc2s1,0,-0.07
CCCCn1cc(S(=O)(=O)NCc2ccccn2)c2cccnc21,-8,1.47
Cc1cccc(CN2CCC(Cn3ccnc3C)CC2)n1,0,-0.03
CCOC(=O)CN1CCNC(=O)CC12CN(C(=O)OC(C)(C)C)C2,19,-2.18
COc1cc2c(cc1C(=O)N1C[C@@H](CN3CCCCC3)[C@@H](CO)C1)CCC2,-16,3.37

Structure (SMILES),% Inhibition [%],Z score
CCN(Cc1cnn(CC)c1)c1nc(C)cc(C)c1C#N,-6,1.06
COc1ccccc1C1CC1NC(=O)NC1c2ccccc2CC1O (stereo not given),-5,0.65
O=C(NC[C@H]1COC2(CCCC2)O1)Nc1c(F)cccc1Oc1ccccc1,-12,1.88
CC(F)(F)C(=O)N1CCC[C@H](S(=O)(=O)N2CCc3ccccc32)C1,0,0.06
c1ccc2nc(O[C@H]3CCNC3)ccc2c1,-11,2.04
CN(Cc1ccc2c(c1)OCO2)C(=O)[C@H]1CC1(Cl)Cl,-11,1.59
Cn1cc(-c2ccc3c(c2)OCC[C@@H]2CC[C@H](O)[C@@H](CNC(=O)[C@@H]4C[C@@H](CN4Cc4ccc(F)c(F)c4)NC3=O)O2)cn1,1,-0.16
Cc1sc2ncnc(NCc3nn(C)cc3C(F)F)c2c1C,-6,1
CN(C(=O)[C@@H](c1ccc(Cl)cc1Cl)N1CCOCC1)C1CC(C)(C)C1,17,-1.99
COCCS(=O)(=O)NCCCCn1ccnc1,-10,1.86
O=C1NC(=O)C(C2CC2c2ccccc2)N1 (stereo not given),-7,1.12
CNS(=O)(=O)Nc1ccc(NC(=O)[C@@H]2CCCCC(=O)N2)cc1,-7,0.96
C#CCOC1CCN(CCN2CCCCC2)CC1,-11,1.47
Cc1cnn(CC2CCN(C(=O)CCn3nnnc3C)CC2)c1,-7,1.08
CCNC(=O)c1ccnc(N2CCC(C(=O)O)(n3ccnc3C)CC2)c1,-4,0.68
CN(Cc1nnc2ccccn12)c1ccnc2cc(F)ccc12,-15,1.97
CC(=O)Nc1nc(C(=O)N[C@H]2CCCc3ccc(C)cc32)cs1,-2,0.43
CC1C(=O)Nc2cccnc2N1S(=O)(=O)C(C)C(=O)N(C)C (stereo not given),1,-0.19
c1ccc(Cc2noc(-c3nc(-c4ccccc4)no3)n2)cc1,-14,1.82
Cc1nn(-c2ccc3nnc(C)n3n2)c2c1[C@@H](c1ccc(O)c(Cl)c1)CC(=O)N2,5,-0.59
CC(C)(O)C1CN(C(=O)NC[C@H]2Cc3ccccc3CN2)C1,-3,0.61
CCOc1cc(-c2noc(-c3cc4n(n3)C[C@@H](c3ccc(Cl)cc3)OC4)n2)ccc1OC,-9,1.07

Structure (SMILES),% Inhibition [%],Z score
O=C1CCN(Cc2ccc3cc[nH]c3c2)C2(CN1)COC2,-12,1.67
CC(C)(N)COc1ncccc1C(F)(F)F,-31,3.66
O=C(c1nc2sccn2c1CN1CCC[C@H](CN2CCCCC2)C1)N1CCCC1,-8,1.23
CCOC1CC(OC(=O)CCc2c(C)nn(C)c2C)C1(CC)CC (stereo not given),-13,2.19
Cc1cnc([C@@H]2CCCN2C(=O)NCc2ccccc2)n1Cc1ccc(F)cc1,5,-0.71
Cc1n[nH]c(C(=O)N(C)CC2CC2)c1Br,-3,0.33
COc1cccc(CNC(=O)c2c(OC)cc(=O)n3c2CCN(C(=O)CC2CC2)CC3)c1,-12,1.73
COCCN(Cc1ccsc1)S(=O)(=O)c1cnn(C)c1,-6,1.12
Cc1nnc2n1CC1CCC(C2)N1C(=O)CCc1conc1-c1ccccc1 (stereo not given),-13,1.74
COCC1(NC(=O)Nc2ccc3[nH]ccc3c2)CCCC1,-18,2.22
CCCC(C)(C)NC(=O)Cc1cccc(N)c1,-1,0.11
CC(=O)NC1CN(c2ncnc3c(C)csc23)C1,-10,2.01
CCN1CN([C@@H](C)c2ncc(C)o2)CC1=O,-9,0.87
CCOCc1nc(CCC(N)=O)n(-c2cccc(C)c2C)n1,-23,2.71
C[C@@H](C(=O)O)n1cc(-c2cccc3c2OC(F)(F)O3)cn1,-1,0.18
CN(Cc1cc[nH]n1)C(=O)NCCOc1cccc(Cl)c1Cl,-3,0.51
Cc1nnc([C@H]2CCN(C(=O)c3cccs3)C2)o1,-7,0.99
O=C(c1ccc(Cl)cc1OC1CCN(CCCC(F)(F)F)CC1)N1CCCCC1,-11,1.26
COCc1nc(C)cc(NCCCn2cncn2)n1,-9,1.85
